Reference: PubChem BioAssay AID624417 (National Center for Advancing Translational Sciences (NCATS), 2012)
Screen size: about 410,000 compounds; about 6,400 (1.6%) were called active. Inconclusive means that the source gave no clear call. Such entries were picked first, then a sample of the others. Calls come from the whole dose curve; as a rule, active = well fitted inhibition curve with a large enough effect; inconclusive = small, poorly fitted or top-dose-only effect; inactive = no such curve, though single readings can be large or run the other way. Potencies of inconclusive entries are doubtful fits and often do not repeat.

biological target: Glucagon-like peptide 1 receptor (Homo sapiens) (UniProt P43220); assay: qHTS of GLP-1 Receptor Inverse Agonists (Inhibition Mode); settings: HEK293 GLP-1R CRE-luciferase, luminescence, 24 h, GLP-1R form is constitutively active; activity change, negative = inhibition: at 38.3 µM (top of the series) unless noted; note: nearly all actives have a fitted effect of over 55% in size
Sequence of UniProt P43220 (P43220 whole entry, looked up): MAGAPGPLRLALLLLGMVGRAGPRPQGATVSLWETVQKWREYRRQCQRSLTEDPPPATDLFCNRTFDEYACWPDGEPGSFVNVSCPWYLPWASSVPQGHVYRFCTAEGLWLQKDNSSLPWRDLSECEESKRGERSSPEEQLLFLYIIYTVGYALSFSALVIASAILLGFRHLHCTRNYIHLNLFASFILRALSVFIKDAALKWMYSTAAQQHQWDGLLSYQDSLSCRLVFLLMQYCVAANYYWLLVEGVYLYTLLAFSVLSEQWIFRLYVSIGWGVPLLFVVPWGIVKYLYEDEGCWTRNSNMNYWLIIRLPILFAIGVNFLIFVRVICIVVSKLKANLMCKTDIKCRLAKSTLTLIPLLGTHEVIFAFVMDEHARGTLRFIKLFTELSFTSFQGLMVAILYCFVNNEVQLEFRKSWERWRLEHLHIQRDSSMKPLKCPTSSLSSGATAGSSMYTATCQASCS
Outline: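 Inverse agonism was detected as reduced cAMP-driven luciferase luminescence after 24 h compound treatment. The cells were HEK293 clones expressing constitutively active human GLP-1R with the reporter. Reporter-only and GPR119 cell lines served as counterscreen controls.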
% is set by controls: 0 for no effect and ±100 for the full control effect; potency is the fitted concentration of half-maximal effect; tags give direction and shape of the fitted curve.

Activity change, negative = inhibition, inactive:
COc1cc(/C=C2\N=C(C)OC2=O)cc(OC)c1OC 13.9%
O=C(Cc1cccs1)N1CCN(c2nc(-c3ccc(Cl)cc3)cs2)CC1 0%
COc1ccc(-c2nc3sc(CCNC(=O)c4ccc(C(C)(C)C)cc4)c(C)n3n2)cc1 3.96%
CCCn1cnc2c(SCc3ccccc3F)nc(N)nc21 36%
COc1ccc(Cc2nc3ccc(C(=O)NCCCSC)cc3o2)cc1OC 41.5%
COc1ccnc(Oc2ccccc2)c1C(=O)N/C=N/OCc1ccccc1 -16.6%

Potency, inconclusive:
CSc1cccc(NC(=S)N2CCC(N(C)C3CCCC3)CC2)c1 10 µM [inhibitor, single point]
CCOC(=O)C1CCC(CN(Cc2ccc(OC)cc2)S(=O)(=O)c2ccc(F)c(C(=O)Nc3cc(Cl)ccc3OC)c2)CC1 (stereo not given) 1 µM [inhibitor, full curve, poor fit]
COc1ccc(NC(=O)Cc2ccc(NC(=O)N3CCCCc4ccccc43)cc2)c(OC)c1 8.91 µM [inhibitor, partial curve, poor fit]
CC(C)c1ccc(NC(=O)c2cc(S(=O)(=O)NCCC3=CCCCC3)ccc2F)cc1 7.08 µM [inhibitor, partial curve, poor fit]
CN1CCN(c2nc(-c3ccccc3)nc(-c3ccc(F)cc3)c2C#N)CC1 7.94 µM [inhibitor, partial curve]
CCOC(=O)C1CCCN(C(=O)C2(c3ccc(Cl)cc3)CCCC2)CC1 (stereo not given) 11.2 µM [inhibitor, partial curve, poor fit]
CCC(=O)OC1(C(C)=O)CCC2C3CCC4=CC(=O)CCC4(C)C3CCC21C (stereo not given) 2 µM [inhibitor, full curve, poor fit]
CCOC(=O)c1c(C)[nH]c(C(=O)CN2C(=O)NC(C)(c3ccc4ccccc4c3)C2=O)c1C (stereo not given) 22.4 µM [inhibitor, single point]
COc1ccc(S(=O)(=O)N2CCCC(C(=O)N3CCCCCC3)C2)cc1 (stereo not given) 3.55 µM [inhibitor, partial curve]
CCc1ccc2occ(CC(=O)NCc3ccccc3)c2c1 8.91 µM [inhibitor, partial curve]
Cc1ccc2c(C(=O)CCl)c(C)[nH]c2c1 12.6 µM [inhibitor, single point]
Nc1nn2cc(-c3ccc(Br)cc3)nc2c2ccccc12 11.2 µM [inhibitor, partial curve, poor fit]
CCOC(=O)C1(Cc2ccccc2)CCN(Cc2cc(OC)c3c(c2)OCO3)CC1 31.6 µM [inhibitor, partial curve, poor fit]
Cc1ccc(S(=O)(=O)Cc2ccc(C(=O)OCc3ccccc3)cc2)cc1 28.2 µM [inhibitor, single point]
CCc1ccccc1NC(=S)/N=C(\N)Nc1nc(C)c2cc(C)ccc2n1 10 µM [inhibitor, partial curve, poor fit]
CC(=O)c1cn(CCOc2ccccc2C)c2ccccc12 11.2 µM [inhibitor, partial curve]
O=C(N/N=C\c1ccc(Sc2ccccn2)o1)c1cccc(F)c1 10 µM [inhibitor, single point]
O=C(CSc1nc(-c2ccco2)cc(C(F)(F)F)n1)N1CCSCC1 20 µM [inhibitor, single point]
Cc1cc(C)cc(NC(=S)Nc2ccccn2)c1 3.55 µM [inhibitor, full curve, poor fit]
CC(C)CNC(=S)N1CCN(c2nc3ccccc3s2)CC1 7.94 µM [inhibitor, partial curve, poor fit]
CCNc1nc(N)c(C(=O)C23CC4CC(CC(C4)C2)C3)s1 5.01 µM [inhibitor, full curve]
COC(=O)[C@@H]1C[C@H]2CC[C@H](O)C[C@H]2N1Cc1ccc(N2CCN(C)CC2)cc1 3.98 µM [inhibitor, partial curve, poor fit]
CCOC(=O)c1c(C)[nH]c(N=Nc2ccc(OC)cc2)c1C 14.1 µM [inhibitor, single point]
O=C(c1cccc(Cl)c1)N1CCN(Cc2ccncc2)CC1 11.2 µM [inhibitor, partial curve, poor fit]
O=C(N/N=C/c1cccc2ccccc12)c1cc2ccccc2o1 2.24 µM [inhibitor, full curve]
CC(C(=O)Nc1ccccc1)N(c1cccc(Cl)c1)S(C)(=O)=O (stereo not given) 8.91 µM [inhibitor, partial curve, poor fit]
Cc1cc(C)c(NC(=O)c2cc(S(=O)(=O)N3CCOCC3)ccc2F)c(C)c1 0.891 µM [inhibitor, full curve, poor fit]
Cn1cc(CCNCc2cn[nH]c2-c2ccc(-c3ccccc3)cc2)cn1 11.2 µM [inhibitor, partial curve, poor fit]
Cn1nnnc1SCCCNCc1cc(Cl)ccc1OCc1ccccc1 28.2 µM [inhibitor, single point]
CCCCCCC(=O)Nc1c2c(nc3ccccc13)N(C)CC2 3.55 µM [inhibitor, partial curve, poor fit]
CCc1c(C)sc(NC(=O)C2CC(c3c(F)cccc3Cl)=NO2)c1C#N (stereo not given) 11.2 µM [inhibitor, single point]
COc1cc(CN2CCCC(C(=O)c3ccc(SC)cc3)C2)cc(Cl)c1O (stereo not given) 5.62 µM [inhibitor, full curve]

Potency, active:
S=C1NC2=C(CCC/C2=C\c2ccc(Cl)cc2)C(c2ccc(Cl)cc2)N1 (stereo not given) 7.94 µM
Cc1cc(C(=O)COC(=O)c2cccnc2Cl)c(C)n1C 7.08 µM
